The results in this text go back to the supplement of paper PMC12645437, “Orthogonal IMiD-Degron Pairs Induce Selective Protein Degradation in Cells” (ACS Chemical Biology, 2025).

The list shows a part of the results.
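Also: jurkat cells carrying a lentiviral library of mutant zinc finger degrons fused to EGFP plus mCherry, mCherry+ cells FACS sorted, degron abundance counted by next-generation sequencing.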

The test concerns the target no compound (DMSO). The test is described as follows: log2 fold change of degron read counts, EGFP-low vs EGFP+ sorted cells; higher = lower degron-EGFP level without compound (poor expression or instability). Particulars: compound: DMSO control; 18 h.
For the sequence FHCEVCGAHFTQKGNLLRHIKL, the “log2 fold change of degron read counts” value was -2.11. Then FGCPICGRAFTQKGNLLRHIKL, with -0.174; and FFCNQCGAFFTQKGNLLRHIKL, with 1.35; and FFCSVCGHKFTQKGNLLRHIKL, with -0.164. For FVCPQCGAMFTQKGNLLRHIKL, the “log2 fold change of degron read counts” value was -1.12. To FGCDICGAPFTQKGNLLRHIKL belongs -0.311. To FMCNVCGAWFTQKGNLLRHIKL belongs 0.268; to LGCEICGFACTQKGNLLRHIKL, 0.398. Consider FACPICGHQFTQKGNLLRHIKL, for which the “log2 fold change of degron read counts” value is -0.119. In the case of LFCPICGFNCTQKGNLLRHIKL, the “log2 fold change of degron read counts” value was 1.44. Then LICEICGFGCTQKGNLLRHIKL, with 0.125; and FDCEICGAIFTQKGNLLRHIKL, with -0.483; and FDCPICGRDFTQKGNLLRHIKL, with -0.236. Then FICNVCGAAFTQKGNLLRHIKL, with -1.23; and FICEVCGAFFTQKGNLLRHIKL, with -0.116; and LECEICGFECTQKGNLLRHIKL, with -0.906. Then FHCNICGAMFTQKGNLLRHIKL, with -0.697; and LTCPICGFFCTQKGNLLRHIKL, with 1.34; and LYCNQCGFDCTQKGNLLRHIKL, with -0.283. Consider FHCEICGAWFTQKGNLLRHIKL, for which the “log2 fold change of degron read counts” value is -0.447. Then FFCPICGAYFTQKGNLLRHIKL, with 0.389; and FMCNQCGHYFTQKGNLLRHIKL, with 0.019.

On to FHCPICGRTFTQKGNLLRHIKL, for which the “log2 fold change of degron read counts” value was -1.48. To LHCEICGFTCTQKGNLLRHIKL belongs -0.35; to FNCPQCGAEFTQKGNLLRHIKL, -1.05. For the sequence FDCPICGACFTQKGNLLRHIKL, the “log2 fold change of degron read counts” value was -0.468. Turning to FMCNQCGAEFTQKGNLLRHIKL, the “log2 fold change of degron read counts” value was -0.594. For FNCNQCGRLFTQKGNLLRHIKL, the “log2 fold change of degron read counts” value worked out at 0.462. Then FTCNQCGRKFTQKGNLLRHIKL, with -0.957; and FHCNQCGHCFTQKGNLLRHIKL, with -0.374. Then LECNQCGFQCTQKGNLLRHIKL, with -0.783. To FSCPICGHHFTQKGNLLRHIKL belongs -0.114; to FNCEICGRTFTQKGNLLRHIKL, -1.31. With FMCNQCGREFTQKGNLLRHIKL, the “log2 fold change of degron read counts” value is -1.73.

FFCPQCGARFTQKGNLLRHIKL: the “log2 fold change of degron read counts” value stood at 0.0137.

For the sequence FNCDQCGAMFTQKGNLLRHIKL, the “log2 fold change of degron read counts” value was -1.72.

In the case of LCCEICGFTCTQKGNLLRHIKL, the “log2 fold change of degron read counts” value was -0.0111. To LDCEICGFPCTQKGNLLRHIKL belongs -0.127.

Regarding FGCPICGRQFTQKGNLLRHIKL, the “log2 fold change of degron read counts” value is -0.253. To FECPICGAHFTQKGNLLRHIKL belongs -0.778. To FECEQCGAYFTQKGNLLRHIKL belongs -0.605; to FLCEICGAFFTQKGNLLRHIKL, -0.794. With FNCPICGAVFTQKGNLLRHIKL, the “log2 fold change of degron read counts” value came out at 0.264. To FVCPICGHMFTQKGNLLRHIKL belongs -0.0473; to FQCPQCGAHFTQKGNLLRHIKL, -0.615.

For FGCNQCGHRFTQKGNLLRHIKL, the “log2 fold change of degron read counts” value came out at 0.951.

In the case of FVCNQCGHDFTQKGNLLRHIKL, the “log2 fold change of degron read counts” value is -1.62. Then FSCSVCGHNFTQKGNLLRHIKL, with -1.31. For the sequence FNCPQCGARFTQKGNLLRHIKL, the “log2 fold change of degron read counts” value is -0.0533. To FWCPICGRIFTQKGNLLRHIKL belongs 1.06.
